The values below come from article PMC12040169 (PLOS Biology, 2025).

The other results are listed elsewhere or left out.

The subject of the test is T1, C. trachomatis L2/434/Bu expressing GFP (CTL2-GFP).
T1 construct: L2/434/Bu GFP intracellular growth in HeLa cells
On the set-up: species or system HeLa; C. trachomatis total inclusion area by high-content imaging, normalised to DMSO. The settings on record: total inclusion area; 28.5 h, 10 µM; inhibitor. A digest of the protocol:
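High-content imaging followed the bulk GFP/resorufin measurement: fixed, Hoechst-stained cells were scored for GFP inclusions and host nuclei per well. Total inclusion area and count served as growth proxies, nuclei number as the viability proxy. MIC calculation matched the bulk assay.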
For the compound `CC12CN3CC(C)(CN(C1)C3c1ccc([N+](=O)[O-])cc1)C2` (stereo not drawn) [CBK262665], the “% of control remaining” value is 84.8116.

For the compound `O=C(Cn1cccc2cc(C3CCCNC3)nc1-2)NC1CCCC1` (stereo not drawn) [CBK285015], the “% of control remaining” value was determined as 99.09.

Take `C=CCn1c(-c2sc(NC(=O)c3ccc(Cl)cc3F)nc2C)n[nH]c1=S` [CBK295361]: the “% of control remaining” value amounted to 107.798.

As for `O=C(Cn1c(=O)n(Cc2cccs2)c2ncccc21)NC1CC1` [CBK283898], the “% of control remaining” value stood at 105.334.

Take `COc1ccc2nc(Nc3nnc(-c4ccco4)o3)sc2c1` [CBK287486]: the “% of control remaining” value is 98.2055.

For `O=C(O)c1ccc(COc2cccc(/C=N\O)c2)cc1` [CBK288501], the “% of control remaining” value worked out at 113.122.

As for `COc1ccccc1C(=O)N[C@H]1C[C@@H](c2nc(-c3cnccn3)no2)N(C)C1` [CBK288850], the “% of control remaining” value turned out to be 108.081.

On to `CC(C)(C)c1cc(N2C(=O)C(O)=C(C(=O)c3ccc(Cl)cc3)C2c2cccc([N+](=O)[O-])c2)no1` (stereo not drawn) [CBK263470], for which the “% of control remaining” value is 89.989.

On to `CCCn1cc(CN2C3CCC2CC(O)(c2ccc(F)cc2)C3)cn1` (stereo not drawn) [CBK282971], for which the “% of control remaining” value came out at 89.8955.

On to `CN(C)CCN1CCN(c2nc(-c3ccc4[nH]ccc4c3)cn3ccnc23)CC1` [CBK036587], for which the “% of control remaining” value came out at 123.609.

Turning to `COC(=O)c1cc(C#N)c(=O)n(CC(O)COCc2ccco2)c1` (stereo not drawn) [CBK305718], the “% of control remaining” value was found to be 91.2263.

For `Nc1nc(CN2CCN(c3ccccc3F)CC2)nc(N2CCCc3ccccc32)n1` [CBK270234], the “% of control remaining” value amounted to 55.6119.

For the compound `COc1ccc([C@]23CC[C@H](NC(=O)Nc4ccc(F)cc4F)C[C@H]2N(C)CC3)cc1OC` [CBK066917T], the “% of control remaining” value was found to be 98.155.

In the case of `CC(C)c1ccc(CN2CCCN(c3cc(OCCc4c[nH]c5ccccc45)ncn3)CC2)cc1` [CBK083280T], the “% of control remaining” value worked out at 57.3564.

`Cc1c(C(=O)N2CCNC(=O)C2(C)C)nnn1Cc1ccc(F)cc1F` [CBK305461]: the “% of control remaining” value is reported as 48.0271.

For the compound `CC(=O)c1c(CSc2ccccc2)nn2c1CCCC2` [CBK016543], the “% of control remaining” value turned out to be 56.2776.

`c1cncc(-c2cnn(-c3ccc4[nH]ccc4c3)n2)c1` [CBK112820]: the “% of control remaining” value came out at 100.619.

For the compound `COc1ccc(C(=O)N2CCC3(CCCN(CC(=O)Nc4ncccn4)C3)C2)cc1OC` (stereo not drawn) [CBK132860], the “% of control remaining” value came to 88.3149.

As for `COc1cc(C)nc(OCCNS(=O)(=O)c2cc(C)ccc2C)n1` [CBK058870], the “% of control remaining” value was 113.445.

Turning to `COc1cc(CC(=O)Nc2cccc(-c3ccc(SC(F)(F)F)cc3)c2)cc(OC)c1OC` [CBK132426], the “% of control remaining” value is listed as 87.8971.

As to `O=S(=O)(NCc1ccc(F)cc1Cl)c1ccc(Cl)c(Cl)c1` [CBK043785], the “% of control remaining” value is listed as 79.9317.

For `Cc1cc(S(=O)(=O)Nc2ccc3[nH]ccc3c2)c(C)o1` [CBK155743], the “% of control remaining” value is 90.6254.

With `Cc1cc(Oc2ccc(Cl)cc2Cl)nc(OCC#N)n1` [CBK019232], the “% of control remaining” value is given as 92.4259.

As for `O=c1[nH]ccn1CCNc1ccc(-c2cccc3cccnc23)cn1` [CBK037658], the “% of control remaining” value is 85.5684.

In the case of `CS(=O)(=O)c1cc(Br)cc(C(=O)NCCNc2cnccn2)c1F` [CBK305731], the “% of control remaining” value is 65.6206.

On to `CS(=O)(=O)Nc1nccnc1-c1ccc2c(c1)OCO2` [CBK050934], for which the “% of control remaining” value stood at 98.4912.

`CC(=O)c1sccc1NS(=O)(=O)c1ccccc1` [CBK038384]: the “% of control remaining” value is reported as 85.817.

In the case of `COc1ccc(-c2nnn(C3CCNCC3)n2)cc1OC` [CBK269870C], the “% of control remaining” value came out at 92.3298.

In the case of `CCCC/C=C/c1cnc2[nH]c(=O)n(CC(C)C)c2n1` [CBK064225], the “% of control remaining” value turned out to be 120.097.

As to `CS(=O)(=O)N1CCN(c2ccccc2NC(=O)CSc2ccc(Cl)cc2)CC1` [CBK267607], the “% of control remaining” value is on record as 107.023.

`O=C(NC(c1ccc(Cl)cc1)c1ccsc1)C1CCN(C(=O)Oc2ccc(Cl)cc2)CC1` (stereo not drawn) [CBK060044]: the “% of control remaining” value came to 88.4104.

Regarding `COc1cccc(C2CC(=O)c3c(ccc4ccccc34)N2)c1OC` (stereo not drawn) [CBK262971], the “% of control remaining” value was 84.7606.

As for `O=C1NCCCC12CCN(Cc1cccs1)CC2` [CBK285346], the “% of control remaining” value turned out to be 114.228.

Consider `COc1ccc(Cc2n[nH]c(=O)n2-c2ccccc2)cc1` [CBK000112], for which the “% of control remaining” value is on record as 145.175.

Turning to `O=C(NCCO)c1cccc(-c2cncc(N3CCN(Cc4ccccn4)CC3)n2)c1` [CBK065784], the “% of control remaining” value stood at 107.381.

On to `COc1cc(F)cc(OC2CCNCC2)c1NC(=O)C1=CC(=O)CC(C)(C)O1` [CBK050352T], for which the “% of control remaining” value is recorded as 96.6274.

As for `CC(C)(C)C1CCC(OCC(O)CN2CCN(CCO)CC2)CC1` (stereo not drawn) [CBK278263C], the “% of control remaining” value came out at 83.8329.

Turning to `CCN1CC2(CCN(Cc3c(F)cccc3F)CC2)c2ccccc21` [CBK136986], the “% of control remaining” value is reported as 96.035.

Turning to `CCN1CC2(CCN(Cc3cc(OC)c(OC)c(OC)c3)CC2)c2ccccc21` [CBK131477], the “% of control remaining” value amounted to 61.837.

Regarding `CC1CN(CCC(=O)O)Cc2cc(Cl)ccc2O1` (stereo not drawn) [CBK286899], the “% of control remaining” value is given as 58.9742.

Consider `O=C1CNC(=O)C2(C/C=C/C[C@H]3COCC[C@H]3N1)CCN(C(=O)c1ccc(=O)[nH]n1)CC2` [CBK292161], for which the “% of control remaining” value is on record as 102.222.

With `CC(=O)N1CCN(c2ncnc3c2nnn3-c2ccccc2)CC1` [CBK287753], the “% of control remaining” value worked out at 105.995.

With `COc1ccc(CCNC(=O)Cn2ccc(C3CCCNC3)n2)cc1` (stereo not drawn) [CBK304444], the “% of control remaining” value was 94.5472.

As to `COc1ccc(CCN2C(=O)CC(Nc3ccc(N4CCOCC4)cc3)C2=O)cc1OC` (stereo not drawn) [CBK266322], the “% of control remaining” value was 143.421.

Regarding `CCCc1ccc(S(=O)(=O)Nc2ccccc2C(=O)O)cc1` [CBK042366], the “% of control remaining” value is given as 105.964.

`O=C(O)CSc1ncnc2ccccc12` [CBK262069]: the “% of control remaining” value is 98.1722.

Consider `c1ccc2c(c1)nc1n2CN(Cc2ccc3c(c2)OCO3)CN1` [CBK268087], for which the “% of control remaining” value amounted to 81.3068.

On to `O=C(NCCCc1ccccn1)c1ccnc2ccc(Cl)cc12` [CBK282618], for which the “% of control remaining” value is 104.251.

As to `Nc1ccccc1NC(=O)NC(=O)c1ccccc1` [CBK022767], the “% of control remaining” value came out at 63.093.

With `OCc1nc2ccccc2n1CCCCOc1ccccc1Cl` [CBK270117], the “% of control remaining” value was determined as 67.4141.

For `Cc1ccc(S(=O)(=O)Nc2c(C(=O)O)sc3ncccc23)cc1[N+](=O)[O-]` [CBK049983], the “% of control remaining” value is 103.663.
